Read counts are not given, so values of variants with three or more changes are uncertain.
B1: CPEB3 Ribozyme (parent)
chain: UAACAGGGGGCCACAGCAGAAGCGUUCACGUCGCAGCCCCUGUCAGAUUCUGGUGAAUCUGCGAAUUCUGCUGUAUAUCUC

Variants of: B1
Experiment: self-cleavage, relative activity (ratio to wild type); higher = more cleavage; in vitro, sequencing
Method in brief: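 After error-prone PCR and barcoding, CPEB3 ribozyme mutant libraries were transcribed with T7 RNA polymerase at 37°C for 5 hours, then given 15 min with DNase I before an EDTA stop, and they cleaved during both steps. Reverse transcription with template switching preceded Illumina sequencing. Relative activity divides a variant's cleaved/total read fraction by the unmutated ribozyme's. At least 5 reads were required per variant, and three batches were averaged.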

| Variant | self-cleavage |
| --- | --- |
| G6A G7U A13G C17G A35G U41C | 0.5 |
| G6A G7U A15U U26C U72C | 0.35 |
| G6A G7U U31A A35G U51A U54C | 0.07 |
| G6A G8C U41C A45G A47G U80A | 0.07 |
| G6A G8U A18G U48C | 0.26 |
| G6A G8U A20G A21G U41C A57C | 0.07 |
| G6A G8U A35G A45G A47U U51A A56G | 0.06 |
| G6A G8U G19C C32U A45U C62U | 0.04 |
| G6A G9A G16A U41A A45U C71U U72G | 0.04 |
| G6A G9A U31C U43C A56G U60C A64G | 0.01 |
| G6A G9A U67C | 0.17 |
| G6A G9C A64G U72A U80A | 0.06 |
| G6A G9C C27A | 0.25 |
| G6A G9C U48C A56G | 0.07 |
| G6A G9U A18G A20G | 0.06 |
| G6A G9U A21G A28G A57G | 0.02 |
| G6A G10A A28G A47G U49C A65G U72A | 0 |
| G6A G10A C11G G24A C79U | 0.04 |
| G6A G10A C23A A35U U72C | 0.08 |
| G6A G10A C23G U72C | 0.05 |
| G6A G10A U25A A28U A45U U54A A77G | 0.04 |
| G6A G10A U25A A45U U54A | 0.05 |
| G6A G10C U49C | 0.08 |
| G6A G16A U41C A45U A56G | 0.06 |

| Variant | self-cleavage |
| --- | --- |
| G6A G16U C27U A64G U67C | 0.12 |
| G6A G19U A20G G30C U78C | 0.22 |
| G6A G19U A20G U58C A65G | 0.05 |
| G6A G19U U25C C32A U51A U80A | 0.22 |
| G6A G19U U43A | 0.3 |
| G6A G19U U43A U66C | 0.05 |
| G6A G22C U54C G55C U80C | 0.17 |
| G6A G24A A35G G42A A45G A56G A64G | 0.05 |
| G6A G24A A77U | 0.05 |
| G6A G24A C32A U43C A47G U60A U66A | 0.05 |
| G6A G33A A45C G52C A56G U66A U76A | 0.03 |
| G6A G33C U41G U54A U60C U76G | 0.05 |
| G6A G33U U41A | 0.08 |
| G6A G33U U49C U54C | 0.1 |
| G6A G33U U49C U54C U66A | 0.14 |
| G6A G42A U43C A57G | 0.23 |
| G6A G53A U60C A75G | 0.04 |
| G6A G55C U72C C81U | 0.11 |
| G6A G61A U67A C68A | 0.13 |
| G6A U25A A47G | 0.07 |
| G6A U25A A47G A64G U66C U72A A75G | 0.05 |
| G6A U25A C38U U43C U49A U60C | 0.04 |
| G6A U25A U54C U76C | 0.06 |
| G6A U25C A28U A47G U72C U80G | 0.09 |

| Variant | self-cleavage |
| --- | --- |
| G6A U25C A35G G55U C62U U66A | 0.04 |
| G6A U25C A35U U43C A65G | 0.12 |
| G6A U25C C37A U67C | 0.05 |
| G6A U25C C37U A64U U67C U72A | 0.05 |
| G6A U25C C38U G46A A47G C50A A64G | 0.04 |
| G6A U25C G30C U51A U54G A56G | 0.07 |
| G6A U25C G33U U49C U54C | 0.25 |
| G6A U25C U26A U60G | 0.3 |
| G6A U25C U31A A64C U66A U80C | 0.05 |
| G6A U25C U31C C37U U67A | 0.15 |
| G6A U25C U43C A47G U48C U74C | 0.27 |
| G6A U25C U48C A64G U66A A77G | 0.04 |
| G6A U25C U60A | 0.26 |
| G6A U25C U60C | 0.35 |
| G6A U25C U67C | 0.05 |
| G6A U25C U74A | 0.28 |
| G6A U25C U80C | 0.09 |
| G6A U25G A56G U60A U72C | 0.22 |
| G6A U26A A35U U66C | 0.39 |
| G6A U26A A56G G61U | 0.07 |
| G6A U26A U43A | 0.23 |
| G6A U26A U43A A56C A64G | 0.07 |
| G6A U26C A35G | 0.38 |
| G6A U26C A65G | 0.08 |

| Variant | self-cleavage |
| --- | --- |
| G6A U26C U60C U66C A77G | 0.1 |
| G6A U31A A35U U43A A64G | 0.13 |
| G6A U31A U58C | 0.19 |
| G6A U31C A35G G36A U41G A75G | 0.04 |
| G6A U31C A35G G42C A65G A75G U78C | 0.02 |
| G6A U31C A45U A47G U51A | 0.13 |
| G6A U31C A56G | 0.11 |
| G6A U31C C38U A64G | 0.07 |
| G6A U31C C44G | 0.18 |
| G6A U31C G53U U72A | 0.06 |
| G6A U31C U41A U80C | 0.05 |
| G6A U31C U60A U80C | 0.06 |
| G6A U41A A75G | 0.2 |
| G6A U41A U58A C62G U67C U72A | 0.14 |
| G6A U41C C50A A65U A77G | 0.14 |
| G6A U41C U54C A64U | 0.11 |
| G6A U41C U60C U66C C71A | 0.17 |
| G6A U41C U72G U80C | 0.27 |
| G6A U41G U78C | 0.13 |
| G6A U43A A45G | 0.18 |
| G6A U43A A45G U48C U58A U67C | 0.07 |
| G6A U43A U66C U69G U78C | 0.17 |
| G6A U43A U80C | 0.13 |
| G6A U43C A47U | 0.07 |

| Variant | self-cleavage |
| --- | --- |
| G6A U43C A64G U78C | 0.15 |
| G6A U43C U54C | 0.05 |
| G6A U43C U67C | 0.18 |
| G6A U43C U69A | 0.19 |
| G6A U43C U78C | 0.26 |
| G6A U48C C59A A65U | 0.15 |
| G6A U48C U69C U74C | 0.19 |
| G6A U49A U76G U80C | 0.2 |
| G6A U49C A56G G63U U72C | 0.33 |
| G6A U49C A56U A64G U69C U72C U80C | 0.11 |
| G6A U49C U78C | 0.2 |
| G6A U49C U80A | 0.27 |
| G6A U51A A64U A65U U69C | 0.22 |
| G6A U51A C62U U67C U80C | 0.05 |
| G6A U51A U54G U80A | 0.06 |
| G6A U51A U67C U80C | 0.16 |
| G6A U51A U72C U76C | 0.12 |
| G6A U51A U80C | 0.39 |
| G6A U51C C59G C62U | 0.07 |
| G6A U51C U67C | 0.09 |
| G6A U51G U72A | 0 |
| G6A U54A G55U U66C | 0.16 |
| G6A U54A U74A | 0.63 |
| G6A U54A U76C U78C | 0.34 |

| Variant | self-cleavage |
| --- | --- |
| G6A U54C A64U A65G U80C | 0.15 |
| G6A U54C A64U U69C | 0.12 |
| G6A U58C G63U U72C A75U U80C | 0.06 |
| G6A U58C U80C | 0.33 |
| G6A U60C U72C | 0.18 |
| G6A U66C U67C | 0.21 |
| G6A U66C U67C U74A | 0.79 |
| G6A U66C U69A G73A | 0.12 |
| G6A U67C U76C | 0.17 |
| G6A U69G A77G | 0.08 |
| G6A U72A U78C | 0.35 |
| G6C A13G U41C U67C | 0.22 |
| G6C A13U A35U U76C | 0.31 |
| G6C A13U C44U U60A G70A U72C A77U | 0.03 |
| G6C A13U U76C | 0.44 |
| G6C A15C A21C U25G A28C U60C | 0 |
| G6C A15G C40U | 0.54 |
| G6C A15G U26C C40A A57G | 0 |
| G6C A18G A56U | 0.08 |
| G6C A18G G70A | 0.09 |
| G6C A18G U48C A65G U66G | 0.53 |
| G6C A18G U80C | 0.49 |
| G6C A20C A21G U25C A45G A56G U78C | 0.42 |
| G6C A20G A35G U41C U66C U72A | 0.17 |

| Variant | self-cleavage |
| --- | --- |
| G6C A20G A35G U78C | 0.26 |
| G6C A20G U26C G33A U51C A57U C81U | 0.23 |
| G6C A20U U26C A56G | 0.04 |
| G6C A21G A45G U51C U60C | 0 |
| G6C A28G U31A C37A | 0.07 |
| G6C A28G U31A U41G U67C U80C | 0.06 |
| G6C A35G C44A G70C U74C | 0.19 |
| G6C A35G U48C | 0.46 |
| G6C A45G A57G C62U A65G | 0.15 |
| G6C A45G U78C | 0.58 |
| G6C A57C A65U | 0.28 |
| G6C C38U U54C | 0.09 |
| G6C C68A U74C | 0.05 |
| G6C G7A A15G A57G U67C A77U | 0.16 |
| G6C G7C A20G U43C U72A | 0.26 |
| G6C G7U A15G C17U C71G | 0.04 |
| G6C G8U A20G A35U U43C U58C U66A | 0.25 |
| G6C G8U A35U U54A A56U A64G | 0.05 |
| G6C G9U A64U U80C | 0.36 |
| G6C G9U U25A U31C C40U U66C | 0.04 |
| G6C G19A U51A U54G | 0.06 |
| G6C G22A U31A U60C U78G | 0.04 |
| G6C G22U U51A | 0.38 |
